According to PubChem BioAssay AID651820 (National Center for Advancing Translational Sciences (NCATS), 2012):
Among all 340,000 compounds or so, about 12,000 (3.5%) were called active. The inconclusive results got no clear call from the source; some entries with a clear call stand among them for comparison. Calls come from the whole dose curve; as a rule, active = well fitted inhibition curve with a large enough effect; inconclusive = small, poorly fitted or top-dose-only effect, or another doubt; inactive = no such curve, though single readings can be large or run the other way. No potency is given beside an inconclusive call; the fits are too rough.

Experiment: qHTS Assay for Inhibitors of Hepatitis C Virus (HCV)
Settings: Huh7.5.1 HCVcc-Cre (HCVcc is cell-culture hepatitis C virus) infection, luciferase reporter, 44 h; activity change, negative = inhibition: at 41.8 µM (top of the series) unless noted
Method in brief: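 A cell-based infection assay in which seeded cells (1,000 per well) receive test compound after 4 h, are inoculated with HCVcc-Cre at approximately 0.5 moi, and are incubated 44 h before luminescence detection.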
% is set by controls: 0 for no effect and ±100 for the full control effect; potency is the fitted concentration of half-maximal effect; tags give direction and shape of the fitted curve.

Compound	Potency	activity change, negative = inhibition
O=S(=O)(c1ccccc1)N1c2cc(Cl)ccc2Oc2nc3ccccc3nc21	inconclusive [inhibitor, single point]	
COc1cc(/C=C/C(=O)C2C(=O)C=C(C)OC2=O)cc(OC)c1O (stereo not given)	inconclusive [inhibitor, single point]	
COc1ccc2c(c1)-c1c(ssc1=S)C(C)(C)N2	inconclusive [inhibitor, partial curve]	
Cc1c(C(=O)NCc2ccc3c(c2)OCO3)oc2ccc(S(=O)(=O)N3CCC(C)CC3)cc12	inconclusive [inhibitor, single point]	
COc1cc(OC)cc(C(=O)NCc2nc(-c3ccccc3)no2)c1	inconclusive [inhibitor, partial curve]	
NC(=O)CC(NC(=O)c1ccccc1)c1ccc(N2CCN(c3ccc(F)cc3)CC2)c([N+](=O)[O-])c1 (stereo not given)	active: 11.2 µM	
CCc1nnc(NC(=O)CSc2ccc(-c3cccs3)nn2)s1		inactive: 32.7%
CCOc1ccc(NC(=O)c2cc3c(C)nc4ccccc4c3o2)cc1	inconclusive [inhibitor, partial curve]	
CC(C)C(c1nnnn1C1CCCC1)N1c2ccccc2CC1C (stereo not given)	inconclusive [inhibitor, single point]	
Cc1cc(N2CCOCC2)nc2ccc(NC(=O)CCC(=O)N3CCN(c4ccc(F)cc4)CC3)cc12	inconclusive [inhibitor, partial curve]	
COc1ccc(N2C(=O)C3CC(C)=C(C)CC3C2=O)c(OC)c1 (stereo not given)		inactive: 20.4%
CC(Oc1ccc(Cl)cc1Cl)c1nc(-c2ccccn2)no1 (stereo not given)	inconclusive [inhibitor, single point]	
CN(C)CCn1c2c(c(SCC(=O)N3CCc4ccccc43)nc1=O)CCCC2	active: 12.6 µM	
O=C(Nc1ccc(C(=O)O)cc1)/C(=C\c1cccc([N+](=O)[O-])c1)NC(=O)c1ccc(Br)o1		inactive: 7.26%
CC(=O)Nc1ccc(S(=O)(=O)Nc2nnc(CC(C)(C)C)s2)cc1		inactive: 16.4%
CCCN(Cc1nnc(-c2cccs2)o1)C(=O)CN1C(=O)NC2(CCC(C)CC2)C1=O (stereo not given)		inactive: -18%
C/C(=N\NC(=O)c1cc(-c2cccs2)nc2ccccc12)c1ccccn1	active: 0.562 µM	
COc1cc(-c2[nH]ncc2CN2CCc3sccc3C2)cc(OC)c1OC	inconclusive [inhibitor, single point]	
Cc1c(C(=O)OCC(=O)N(C)Cc2ccccc2)oc2ccccc12	inconclusive [inhibitor, single point]	
CCOc1cc(/C=C/c2ccc3cccc([N+](=O)[O-])c3n2)ccc1OCC(=O)N(C)C	inconclusive [inhibitor, partial curve, poor fit]	
CN(CC(=O)Nc1cccc(F)c1)C(=O)CCCNC(=O)c1ccc(Cl)cc1		inactive: 1.85%
CS(=O)(=O)c1ncc(Cl)c(C(=O)Nc2ccc3ccccc3c2)n1	active: 11.2 µM	
O=C1NC(c2ccccc2Br)=N/C1=C\c1ccco1		inactive: 21.6%

Compound	Potency	activity change, negative = inhibition
FC(F)(F)c1cnc(N2CCCN(C(=S)Nc3ccccc3)CC2)c(Cl)c1	inconclusive [inhibitor, single point]	
O=C(COC(=O)COc1ccc(Br)cc1)NNC(=O)c1ccccc1		inactive: -3.31%
O=c1cc(-c2ccsc2)oc2ccccc12	inconclusive [inhibitor, partial curve]	
Cc1ccc(C)c(NC(=S)NCCc2c[nH]c3ccccc23)c1	inconclusive [inhibitor, single point]	
O=C(NCCCN1CCCCCC1)c1ccc2c(Cl)c3c(nc2c1)CCCC3	active: 0.631 µM	
CC[C@@H](C)C(NC(=O)OC(C)(C)C)c1cn([C@@H](CCCCNC(=O)OC(C)(C)C)C(=O)N2CCN(C(=O)OC(C)(C)C)CC2)nn1 (stereo not given in full)		inactive: -14.6%
N#Cc1ccc(/C=C/C(=O)c2cccnc2)cc1	inconclusive [inhibitor, single point]	
C=CCN1CCN(C(=O)c2cc3c(s2)CCC(CC)C3)CC1 (stereo not given)		inactive: -4.8%
Cc1cc(Cl)ccc1C(=O)C1CCCN(C(=O)c2ccc3ncccc3c2)C1 (stereo not given)		inactive: -8.88%
O=[N+]([O-])c1cc(S(=O)(=O)N2CCCC2)ccc1NN=C1CCCC1	inconclusive [inhibitor, single point]	
CC(=O)c1ccc(NS(=O)(=O)c2cc3c(cc2C)N(C)CCO3)cc1		inactive: -9.39%
COc1ccc(NC(=O)C2CCCN2C(=O)Nc2ccccc2)cc1OC (stereo not given)	inconclusive [inhibitor, single point]	
CCOC(=O)c1sc2nc(C)nc(NCCc3ccccn3)c2c1C	inconclusive [inhibitor, single point]	
CCOC(=O)c1[nH]c2ccc(Br)cc2c1NC(=O)CCN1CCC(C)CC1	inconclusive [inhibitor, single point]	
O=C(Nc1ccc(SC(F)F)cc1)c1cc(-c2ccncc2)nc2ccccc12	inconclusive [inhibitor, single point]	
CC(C)(C)OC(=O)N1CC=C2C(C#N)=C(N)C(C#N)(C#N)[C@H](c3cccnc3)[C@H]2C1		inactive: -3.22%
C=CCn1c(-c2cc(Cl)ccc2OC)n[nH]c1=S		inactive: 5.3%
O=c1c2ccccc2cnn1CCOc1cccc(Br)c1	inconclusive [inhibitor, single point]	
O=[N+]([O-])c1c(Nc2ccccn2)cc(Cl)c2nonc12	inconclusive [inhibitor, partial curve]	
Nc1nc(CN2CCN(C(c3ccccc3)c3ccccc3)CC2)nc(Nc2ccccc2)n1	inconclusive [inhibitor, partial curve]	
COc1ccc(OCC(O)Cn2c(=N)n(CCN3CCCCC3)c3ccccc32)cc1 (stereo not given)	inconclusive [inhibitor, partial curve]	
Cc1ccc(N2C(=O)N3[C@H](c4ccc(F)cc4)[C@@H]4C(=O)N(C5CCCCC5)C(=O)[C@@H]4[C@]3(Cc3ccccc3)C2=O)cc1		inactive: 15%
